Experimental data reported in article PMC4599898.
No constants are given. Whether binding was seen depends on the method and setting. In cells and extracts the contact can be indirect. Some entries that bind do so weakly or less than the wild type.

T1: GBF2 (Arabidopsis thaliana) (UniProt P42775)
T1 sequence: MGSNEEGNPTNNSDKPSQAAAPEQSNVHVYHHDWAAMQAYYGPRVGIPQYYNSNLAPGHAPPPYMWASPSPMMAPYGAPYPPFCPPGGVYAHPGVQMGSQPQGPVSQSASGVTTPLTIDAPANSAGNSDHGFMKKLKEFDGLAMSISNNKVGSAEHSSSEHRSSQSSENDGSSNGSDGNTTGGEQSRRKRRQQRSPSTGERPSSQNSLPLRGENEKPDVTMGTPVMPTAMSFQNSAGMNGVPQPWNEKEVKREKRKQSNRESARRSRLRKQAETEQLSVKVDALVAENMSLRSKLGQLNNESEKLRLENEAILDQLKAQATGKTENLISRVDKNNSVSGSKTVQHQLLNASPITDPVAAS

T2: GBF3 (Arabidopsis thaliana) (UniProt P42776)
T2 sequence: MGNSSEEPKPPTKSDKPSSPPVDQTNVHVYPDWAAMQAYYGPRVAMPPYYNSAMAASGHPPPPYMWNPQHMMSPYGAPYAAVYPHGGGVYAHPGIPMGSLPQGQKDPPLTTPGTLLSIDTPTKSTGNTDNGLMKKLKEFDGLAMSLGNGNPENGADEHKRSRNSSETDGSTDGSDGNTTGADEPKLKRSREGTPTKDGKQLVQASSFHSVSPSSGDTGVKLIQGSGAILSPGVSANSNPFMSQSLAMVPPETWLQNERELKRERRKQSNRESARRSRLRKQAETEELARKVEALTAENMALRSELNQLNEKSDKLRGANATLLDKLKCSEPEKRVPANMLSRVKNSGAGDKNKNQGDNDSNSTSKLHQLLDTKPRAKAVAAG

T3: bZIP68 (Arabidopsis thaliana) (UniProt Q84LG2)
T3 sequence: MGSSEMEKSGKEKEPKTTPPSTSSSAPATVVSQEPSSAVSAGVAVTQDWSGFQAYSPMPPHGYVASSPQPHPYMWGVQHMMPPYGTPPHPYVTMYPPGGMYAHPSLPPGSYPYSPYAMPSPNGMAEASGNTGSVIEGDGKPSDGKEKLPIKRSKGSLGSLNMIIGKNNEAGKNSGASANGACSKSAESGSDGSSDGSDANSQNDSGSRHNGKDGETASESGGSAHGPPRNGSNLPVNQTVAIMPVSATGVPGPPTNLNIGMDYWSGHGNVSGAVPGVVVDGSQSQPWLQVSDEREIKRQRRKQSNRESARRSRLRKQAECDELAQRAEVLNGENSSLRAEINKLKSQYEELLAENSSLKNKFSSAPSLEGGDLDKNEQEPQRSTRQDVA

T4: GBF1 (Arabidopsis thaliana) (UniProt P42774)
T4 sequence: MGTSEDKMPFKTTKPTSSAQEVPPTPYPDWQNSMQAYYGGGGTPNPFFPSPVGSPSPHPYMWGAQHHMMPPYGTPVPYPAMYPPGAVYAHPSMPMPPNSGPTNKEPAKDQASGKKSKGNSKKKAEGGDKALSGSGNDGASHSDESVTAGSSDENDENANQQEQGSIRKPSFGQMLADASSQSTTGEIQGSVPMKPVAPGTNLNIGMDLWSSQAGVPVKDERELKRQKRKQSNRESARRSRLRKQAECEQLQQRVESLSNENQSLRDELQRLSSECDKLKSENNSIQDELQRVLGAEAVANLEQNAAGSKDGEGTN

T5: bZIP16 (Arabidopsis thaliana) (UniProt Q501B2)
T5 sequence: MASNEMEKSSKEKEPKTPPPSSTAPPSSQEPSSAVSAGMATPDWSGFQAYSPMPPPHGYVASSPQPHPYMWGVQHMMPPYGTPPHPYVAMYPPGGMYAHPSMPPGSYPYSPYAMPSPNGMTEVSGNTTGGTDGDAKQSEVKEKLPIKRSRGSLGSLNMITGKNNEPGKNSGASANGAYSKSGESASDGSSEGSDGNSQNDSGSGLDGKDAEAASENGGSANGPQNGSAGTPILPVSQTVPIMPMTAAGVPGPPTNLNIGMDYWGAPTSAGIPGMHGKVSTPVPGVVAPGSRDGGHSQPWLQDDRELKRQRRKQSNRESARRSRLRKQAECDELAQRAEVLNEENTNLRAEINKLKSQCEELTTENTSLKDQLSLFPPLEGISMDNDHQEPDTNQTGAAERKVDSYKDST

B1: GBF2 (protein, UniProt P42775 1-360)
chain: T1 sequence
B2: bZIP2 (protein, UniProt Q9SI15 1-171)
chain: MASSSSTYRSSSSSDGGNNNPSDSVVTVDERKRKRMLSNRESARRSRMRKQKHVDDLTAQINQLSNDNRQILNSLTVTSQLYMKIQAENSVLTAQMEELSTRLQSLNEIVDLVQSNGAGFGVDQIDGCGFDDRTVGIDGYYDDMNMMSNVNHWGGSVYTNQPIMANDINMY
B3: bZIP1 (protein, UniProt Q9FGX2 1-145)
chain: MANAEKTSSGSDIDEKKRKRKLSNRESARRSRLKKQKLMEDTIHEISSLERRIKENSERCRAVKQRLDSVETENAGLRSEKIWLSSYVSDLENMIATTSLTLTQSGGGDCVDDQNANAGIAVGDCRRTPWKLSCGSLQPMASFKT
B4: bZIP11 (protein, UniProt O65683 1-159)
chain: MESSSSGTTSSTIQTSSGSEESLMEQRKRKRMLSNRESARRSRMKKQKLLDDLTAQVNHLKKENTEIVTSVSITTQHYLTVEAENSVLRAQLDELNHRLQSLNDIIEFLDSSNNNNNNNMGMCSNPLVGLECDDFFVNQMNMSYIMNQPLMASSDALMY
B5: bZIP53 (protein, UniProt Q9LZP8 1-146)
chain: MGSLQMQTSPESDNDPRYATVTDERKRKRMISNRESARRSRMRKQKQLGDLINEVTLLKNDNAKITEQVDEASKKYIEMESKNNVLRAQASELTDRLRSLNSVLEMVEEISGQALDIPEIPESMQNPWQMPCPMQPIRASADMFDC
B6: GBF3 (protein, UniProt P42776 1-382)
chain: T2 sequence
B7: bZIP16 (protein, UniProt Q501B2 1-409)
chain: T5 sequence
B8: bZIP68 (protein, UniProt Q84LG2 1-389)
chain: T3 sequence
B9: bZIP63 (protein, UniProt B9DGI8 1-314)
chain: MEKVFSDEEISGNHHWSVNGMTSLNRSASEWAFNRFIQESSAAADDGESTTACGVSVSSPPNVPVDSEEYRAFLKSKLNLACAAVAMKRGTFIKPQDTSGRSDNGGANESEQASLASSKATPMMSSAITSGSELSGDEEEADGETNMNPTNVKRVKRMLSNRESARRSRRRKQAHLSELETQVSQLRVENSKLMKGLTDVTQTFNDASVENRVLKANIETLRAKVKMAEETVKRLTGFNPMFHNMPQIVSTVSLPSETSNSPDTTSSQVTTPEIISSGNKGKALIGCKMNRTASMRRVESLEHLQKRIRSVGDQ

What follows are binders tested against T1, GBF2 (Arabidopsis thaliana) (assay: split reporter; split YFP BiFC in transiently transformed Arabidopsis protoplasts, 2 ug of each plasmid, incubated overnight; read by flow cytometry (at least three biological replicates, minimum 30,000 cells); each pair tested in both fusion conformations (SPN and SPC); positive where the normalized BiFC score lies above the threshold 0.01 in both conformations).

Binder | binding
B1 | binds
B2 | no binding
B3 | no binding
B4 | no binding
B5 | no binding

What follows are binders tested against T2, GBF3 (Arabidopsis thaliana) in the same assay as above.

Binder | binding
B1 | binds
B6 | binds
B2 | binds
B3 | no binding
B4 | no binding
B5 | no binding

These binders were tested against T3, bZIP68 (Arabidopsis thaliana) in the same assay as above.

Binder | binding
B1 | binds
B6 | binds
B7 | binds
B2 | no binding
B8 | binds
B3 | no binding
B4 | no binding
B5 | no binding

These binders were tested against T4, GBF1 (Arabidopsis thaliana) in the same assay as above.

Binder | binding
B2 | no binding
B9 | binds
B3 | no binding
B4 | no binding
B5 | no binding

These binders were tested against T5, bZIP16 (Arabidopsis thaliana) in the same assay as above.

Binder | binding
B1 | binds
B6 | binds
B7 | binds
B2 | no binding
B9 | binds
B3 | no binding
B4 | no binding
B5 | no binding
